Results: PubChem BioAssay AID624417 (National Center for Advancing Translational Sciences (NCATS), 2012)
Hit rate of the full screen: of about 410,000 compounds, about 6,400 (1.6%) were called active. Inconclusive means that the source gave no clear call. Such entries were picked first, then a sample of the others. The call rests on the fitted dose curve; in most records, active means well fitted inhibition curve with a large enough effect; inconclusive means small, poorly fitted or top-dose-only effect; inactive means no such curve, though single readings can be large or run the other way. Where the call is inconclusive, the potency comes from a doubtful curve fit.

Biological target: Glucagon-like peptide 1 receptor (Homo sapiens) (UniProt P43220)
Sequence of UniProt P43220 (P43220 whole entry, looked up): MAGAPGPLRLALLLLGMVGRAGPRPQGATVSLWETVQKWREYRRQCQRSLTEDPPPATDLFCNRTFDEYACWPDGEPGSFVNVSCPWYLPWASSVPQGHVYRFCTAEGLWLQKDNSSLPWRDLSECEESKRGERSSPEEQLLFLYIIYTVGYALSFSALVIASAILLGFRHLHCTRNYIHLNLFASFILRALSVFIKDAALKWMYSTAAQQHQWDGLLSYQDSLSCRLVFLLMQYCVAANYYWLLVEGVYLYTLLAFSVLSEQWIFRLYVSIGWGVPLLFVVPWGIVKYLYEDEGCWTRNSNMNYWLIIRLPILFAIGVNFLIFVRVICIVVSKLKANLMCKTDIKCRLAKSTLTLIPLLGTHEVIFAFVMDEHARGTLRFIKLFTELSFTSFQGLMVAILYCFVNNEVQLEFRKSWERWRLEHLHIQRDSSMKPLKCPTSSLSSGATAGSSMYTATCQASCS
Experiment: qHTS of GLP-1 Receptor Inverse Agonists (Inhibition Mode); further: nearly all actives have a fitted effect of over 55% in size
Conditions: HEK293 GLP-1R CRE-luciferase, luminescence, 24 h, GLP-1R form is constitutively active; activity change, negative = inhibition: at 38.3 µM (top of the series) unless noted
Procedure, shortened: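 Constitutively active GLP-1R drives a cAMP-responsive luciferase in stably transfected HEK293 cells; test compounds are added after overnight (12 h) attachment and left 24 hr, and signal loss in luminescence marks inhibition.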
On the % scale 0 is the no-effect control and ±100 the full control effect; potency means the concentration at half of the fitted maximal effect; tags describe the fitted curve by direction and shape.

Potency, inactive:
CC(=O)c1cccc(-n2c(CCC(=O)O)ccc2-c2ccccc2)c1

Potency, inconclusive:
Cc1cc(C)c(C(O)c2ncc(-c3ccccc3F)[nH]2)c(C)c1 (centres undefined) 31.6 µM [inhibitor, single point]
COCCNC(=O)[C@H](C)[C@H]1C[C@]1(C)[C@H](NC(=O)OCc1ccccc1)c1ccccc1 12.6 µM [inhibitor, single point]
COc1ccc(F)cc1-c1cc(NC(C)=O)c2ncc(-c3cc(OC)c(OC)c(OC)c3)n2c1 4.47 µM [inhibitor, partial curve]
Cn1c(C(=O)NCCc2ccccc2)cc2cc(S(=O)(=O)N3CCCCC3)ccc21 28.2 µM [inhibitor, single point]
C=CCN(c1ccccc1)S(=O)(=O)c1cccc(C(=O)Nc2nc3ccccc3[nH]2)c1 2.24 µM [inhibitor, full curve, poor fit]
COc1ccc(C(C)C)cc1-c1cc(C(=O)NCc2cccc(C(F)(F)F)c2)[nH]n1 11.2 µM [inhibitor, single point]
COc1ccc(CN2CCC2(C)C(=O)Nc2cnc3ccccc3c2)c2ccccc12 (centres undefined) 11.2 µM [inhibitor, single point]
COc1ccccc1-c1noc(CCC(=O)Nc2cccc(C(F)(F)F)c2)n1 2 µM [inhibitor, full curve, poor fit]
Cc1ccc2nc(C(F)(F)F)c(C#N)c(N)c2c1 10 µM [inhibitor, single point]
O=S(=O)(c1ccccc1Cl)N1CCCC1c1nc(-c2ccccc2Cl)no1 (centres undefined) 15.8 µM [inhibitor, single point]
FC(F)(F)c1cccc(OCCN2CCN(Cc3ccccc3)CC2)c1 11.2 µM [inhibitor, partial curve, poor fit]
CC(C)c1ccc(N=C2NN=C(c3cccs3)CS2)cc1 14.1 µM [inhibitor, single point]
COc1ccc(S(=O)(=O)N2CCC3CC2c2c(-c4ccc(C(F)(F)F)cc4)cccc23)cc1 (centres undefined) 4.47 µM [inhibitor, full curve]
Cc1ccc(NC(=S)N/N=C/c2c(Cl)cccc2Cl)c(C)c1 2 µM [inhibitor, full curve, poor fit]
CCOc1ccc(NCc2cccn2-c2nnc(N3CCC(C(=O)NCCc4ccc(OCC)c(OCC)c4)CC3)s2)cc1 10 µM [inhibitor, single point]
CC(=O)C1=C(c2cccc([N+](=O)[O-])c2)N(C(C)=O)n2c(C)nnc2S1 11.2 µM [inhibitor, single point]
O=C(NC12CC3CC(CC(C3)C1)C2)c1ccco1 20 µM [inhibitor, single point]
CCN(Cc1ccccc1)C(=O)CCNS(=O)(=O)c1cc(Br)cnc1N 28.2 µM [inhibitor, single point]
COc1ccccc1-c1nnc(SC/C(O)=C(\C#N)c2nc3ccccc3[nH]2)n1C1CCCCC1 15.8 µM [inhibitor, single point]
CC(C)CC(=O)Nc1nc2ccc(S(=O)(=O)N3CCOCC3)cc2s1 10 µM [inhibitor, single point]
Cc1cc(C)cc(N(CC(=O)Nc2ccc(C(F)(F)F)cc2)S(=O)(=O)c2c(C)[nH]c(=O)[nH]c2=O)c1 28.2 µM [inhibitor, single point]
C/C(=C\C(=S)Nc1ccccc1)Nc1cccc2ccccc12 28.2 µM [inhibitor, single point]
COC(=O)COc1ccc(/C=N/NC(=O)CN(c2ccccc2OC)S(=O)(=O)c2ccccc2)cc1 28.2 µM [inhibitor, single point]
COc1ccc(C(C)=O)cc1COc1cccc2c1OC(C)(C)C2 10 µM [inhibitor, single point]
COc1ccc(C(=O)NNC(=O)c2ccc3ccccc3n2)cc1 5.62 µM [inhibitor, full curve, poor fit]
COc1ccc(OCc2cc(C(=O)N(C)C3CCOC3)no2)c(Cl)c1 (centres undefined) 10 µM [inhibitor, partial curve, poor fit]
CN(C1CCCCC1)S(=O)(=O)c1ccc(NC(=S)NC(=O)c2cccs2)cc1 10 µM [inhibitor, partial curve, poor fit]
O=C(NNC1=Nc2ccccc2SC1)c1ccc(Cl)cc1 12.6 µM [inhibitor, single point]
CCOC(=O)c1cnc(SC)nc1Sc1ccccc1 11.2 µM [inhibitor, single point]
CCOC(=O)C1(CC2CCCCO2)CCN(Cc2ccc(OC)cc2F)CC1 (centres undefined) 3.55 µM [inhibitor, full curve, poor fit]
CCCCNc1c(-c2ccc(OC)c(SC3CCCCC3)c2)nc2cnccn12 28.2 µM [inhibitor, single point]
O=c1c2ccccc2c(-c2ccc(Br)cc2)nn1Cc1ccccc1 1.26 µM [inhibitor, full curve, poor fit]
COc1ccccc1NC(=O)c1ccc(-c2ccc(Br)cc2)o1 6.31 µM [inhibitor, partial curve, poor fit]
O=C(Cc1c(F)cccc1Cl)OCC(=O)c1ccc[nH]1 15.8 µM [inhibitor, single point]
CC(C)(C)CC(=O)Nc1nnc(C(F)(F)F)s1 11.2 µM [inhibitor, partial curve, poor fit]
O=C(CSc1nc2ccccc2s1)NNC(=O)Nc1ccc(Cl)c(Cl)c1 15.8 µM [inhibitor, partial curve, poor fit]
CC1CCCCN1C(=O)Cn1cc(C(=O)c2ccco2)c2ccccc21 (centres undefined) 31.6 µM [inhibitor, single point]
CCOC(=O)C1(C(C)(C)CC)CC(CSc2nc3ccccc3[nH]2)OC1=O (centres undefined) 12.6 µM [inhibitor, single point]
O=C(NCc1cccc(Cl)c1)c1cccc(C(F)(F)F)c1 11.2 µM [inhibitor, partial curve, poor fit]
Cc1ccc(NC(=S)NCCc2ccc(Cl)cc2)c(C)c1 28.2 µM [inhibitor, single point]
COc1ccc(CNC(=O)c2cnn(-c3ccc(C)cc3)c2C2CCN(C(=O)OC(C)(C)C)CC2)cc1 12.6 µM [inhibitor, single point]
CC(NC(=O)c1ccccc1Cl)C1COc2ccccc2O1 (centres undefined) 8.91 µM [inhibitor, partial curve, poor fit]
O=C(c1ccccc1)N(Cc1nc2ccccc2c(=O)[nH]1)C1CCCCC1 17.8 µM [inhibitor, partial curve, poor fit]
Cc1cc(C)cc(N(CC(=O)NCc2ccc3c(c2)OCO3)C(=O)CCC(=O)Nc2ccccn2)c1 11.2 µM [inhibitor, partial curve, poor fit]
CCN(CCCNC(=O)C1CCC(=O)N1Cc1ccccc1Cl)c1cccc(C)c1 (centres undefined) 10 µM [inhibitor, single point]
O=[N+]([O-])c1ccc(CS(=O)(=O)c2ccc(Cl)cc2)cc1 28.2 µM [inhibitor, single point]
N#Cc1ccc(C(=O)Nc2nc(-c3cccs3)c(C(=O)C(F)(F)F)s2)cc1 2.24 µM [inhibitor, full curve, poor fit]

Potency, active:
COc1ccc(CC(=O)N2CC3(C)CC2CC(C)(C)C3)cc1 (centres undefined) 11.2 µM
O=C(Nc1cccc(-c2csc(Nc3cccc(C(F)(F)F)c3)n2)c1)c1ccccc1 2.82 µM

Activity change, negative = inhibition, inactive:
CCCC(=O)N1c2ccccc2C(=C2SC(C(=O)OC)=C(C(=O)OC)S2)C(=S)C1(C)C 15.5%
COc1cc2c(cc1NS(=O)(=O)N1CCCCC1)oc1ccccc12 -13.7%
COc1ccc(C(=O)CNc2ccccc2Br)cc1 17.8%
Cc1cccc(C(=O)NC(=S)NNC(=O)COc2ccc(Cl)cc2)c1 11.1%
Cn1cc(CN2CCCC(C(=O)c3ccc(-c4ccccc4)cc3)C2)cn1 (centres undefined) -37.2%
Cn1c(NCc2cccnc2)nc2c1c(=O)n(Cc1ccccc1F)c(=O)n2C 0%
Cc1nc2ncnn2c(C)c1CCC(=O)NCc1ccc(Cl)cc1 2.47%
Cc1ccc(OCCSc2nc3ccccc3n2CCC(=O)O)cc1C -6.88%
COc1ccc(/C=C(\NC(=O)c2ccccc2)C(=O)NC2CCCCC2)cc1 -9.42%
CCOc1ccccc1C(=O)N1CCc2cc(OC)c(OC)cc2C1COc1ccc2c(C)cc(=O)oc2c1 (centres undefined) 7.73%
Cc1ccc(-n2ncc3c(Nc4ccc5c(c4)OCCO5)ncnc32)cc1C 4.78%
CC(OC(=O)c1ccc([N+](=O)[O-])o1)C(=O)Nc1nc(-c2ccc(F)c(F)c2)cs1 (centres undefined) -20.2%
Cc1ccc(NC(=O)Cn2ccn(Cc3ccc(Cl)cc3)c(=O)c2=O)cc1C -15.7%
CCN(C(=O)CSc1nnc(-c2ccccc2Cl)n1N)c1c(N)n(Cc2ccccc2)c(=O)[nH]c1=O 16.4%
